# In the antibiotic and cytotoxicity screens of Wong et al. (2023):
# This is one part of the list.
# Key:
# HSkMC = human skeletal muscle cells; experiment: cytotoxicity call (relative viability < 0.9); details: 10 µM
# HepG2 = experiment: cytotoxicity call (relative viability < 0.9); details: 10 µM
# S. aureus RN4220 = experiment: growth inhibition call (relative growth <= 0.2); details: 50 µM
SMILES,cytotoxicity call (HSkMC),cytotoxicity call (HepG2),growth inhibition call (S. aureus RN4220)
Cc1noc(C)c1NC(=O)N(C)C[C@H]1Oc2c(NS(=O)(=O)c3cn(C)cn3)cccc2C(=O)N([C@@H](C)CO)C[C@@H]1C,inactive,inactive,inactive
COc1ccccc1-c1cnc2c(c1)C(=O)N([C@@H](C)CO)C[C@H](C)[C@H](CN(C)C(=O)c1ccncc1)O2,inactive,inactive,inactive
Cn1cnc(S(=O)(=O)N[C@@H]2C=C[C@@H](CC(=O)N3CCN(c4ccccc4)CC3)O[C@@H]2CO)c1,inactive,inactive,inactive
O=C(C[C@H]1CC[C@H]2[C@@H](COC[C@@H](O)CN2C(=O)Nc2ccc(Cl)c(Cl)c2)O1)NCc1ccc(Cl)c(Cl)c1,inactive,active,inactive
Cc1noc(C)c1NC(=O)N(C)C[C@@H]1Oc2ccc(NS(=O)(=O)c3c(C)noc3C)cc2CC(=O)N([C@@H](C)CO)C[C@@H]1C,inactive,inactive,inactive
Cc1ccc(S(=O)(=O)Nc2ccc3c(c2)C(=O)N([C@@H](C)CO)C[C@H](C)[C@@H](CN(C)Cc2ccc(Oc4ccccc4)cc2)O3)cc1,inactive,inactive,inactive
C[C@H]1CCCCO[C@H](CN(C)C(=O)C2CCCCC2)[C@@H](C)CN([C@@H](C)CO)C(=O)c2cc(NS(=O)(=O)c3ccccc3)ccc2O1,inactive,inactive,inactive
C[C@@H]1CN([C@@H](C)CO)C(=O)c2cccc(NC(=O)Nc3ccc(C(F)(F)F)cc3)c2O[C@@H]1CN(C)Cc1ccc(Cl)c(Cl)c1,active,active,inactive
COc1ccc(S(=O)(=O)N(C)C[C@@H]2OCCCC[C@@H](C)Oc3ccc(NC(=O)c4ccccc4)cc3C(=O)N([C@@H](C)CO)C[C@H]2C)cc1,inactive,inactive,inactive
CN(C)N=Nc1[nH]cnc1C(N)=O,inactive,inactive,inactive
O=C(C[C@@H]1CC=CCCC(=O)OC[C@@H](Cc2c[nH]c3ccccc23)NC1=O)N[C@@H](CO)Cc1ccccc1,inactive,inactive,inactive
C[C@@H]1CN([C@H](C)CO)C(=O)c2cc(NC(=O)Cn3cnnn3)ccc2O[C@H]1CN(C)Cc1ccc2c(c1)OCO2,inactive,inactive,inactive
C[C@H](CO)N1C[C@H](C)[C@@H](CN(C)S(=O)(=O)c2ccc(F)cc2)Oc2cc(C#Cc3ccncc3)ccc2S1(=O)=O,inactive,inactive,inactive
C[C@H]1CN([C@@H](C)CO)C(=O)c2cccc(NC(=O)c3nc4ccccc4s3)c2O[C@H]1CN(C)Cc1ccc(C(=O)Nc2ccccc2N)cc1,inactive,inactive,inactive
C[C@H](CO)N1C[C@H](C)[C@H](CN(C)Cc2ccc(Oc3ccccc3)cc2)Oc2ccc(NC(=O)C3CCCCC3)cc2C1=O,inactive,inactive,inactive
C[C@H]1CN([C@@H](C)CO)C(=O)Cc2cc(NC(=O)CCCCCC(=O)Nc3ccccc3N)ccc2O[C@H]1CN(C)Cc1ccc(C(F)(F)F)cc1,inactive,inactive,inactive
C[C@@H]1CN([C@H](C)CO)C(=O)c2cc(NC(=O)CCCN(C)C)ccc2O[C@H]1CN(C)Cc1ccc(Oc2ccccc2)cc1,inactive,active,inactive
COc1ccc(S(=O)(=O)N(C)C[C@H]2OCCCC[C@@H](C)Oc3ccc(NC(=O)NC4CCCCC4)cc3C(=O)N([C@H](C)CO)C[C@@H]2C)cc1,inactive,inactive,inactive
CS(=O)(=O)O.CSc1ccc2c(c1)C(N1CCN(C)CC1)Cc1ccccc1S2 (stereo unspecified),active,active,active

SMILES,cytotoxicity call (HSkMC),cytotoxicity call (HepG2),growth inhibition call (S. aureus RN4220)
COc1ccc(CN(C)C[C@H]2OCCCC[C@@H](C)Oc3ccc(NC(=O)Nc4c(C)noc4C)cc3C(=O)N([C@@H](C)CO)C[C@H]2C)cc1,inactive,inactive,inactive
C[C@H](CO)N1C[C@H](C)[C@@H](CN(C)C(=O)C2CCCCC2)OCCCC[C@H](C)Oc2ccc(NC(=O)Nc3ccc(F)cc3)cc2C1=O,inactive,inactive,inactive
O=C(C[C@H]1C=C[C@@H](NC(=O)CN2CCOCC2)[C@H](CO)O1)NCc1cccc(F)c1,inactive,inactive,inactive
Cn1c(=O)c2c(ncn2CC(=O)N2CCN(c3ccccc3)CC2)n(C)c1=O,inactive,inactive,inactive
Cc1ccc(S(=O)(=O)N[C@H]2C=C[C@H](CC(=O)NCCN3CCCCC3)O[C@H]2CO)cc1,inactive,inactive,inactive
Cn1c(=O)c(=O)n(C)c2cc(S(=O)(=O)N3CCOCC3)ccc21,inactive,inactive,inactive
Cc1noc(C)c1NC(=O)Nc1cccc2c1O[C@@H](CN(C)Cc1ccc(-c3ccccc3)cc1)[C@H](C)CN([C@@H](C)CO)C2=O,inactive,inactive,inactive
CC(C)NC(=O)N(C)C[C@@H]1OCCCC[C@@H](C)Oc2ccc(NC(=O)CCCCCC(=O)Nc3ccccc3N)cc2C(=O)N([C@H](C)CO)C[C@H]1C,inactive,inactive,inactive
C[C@@H]1CN([C@H](C)CO)S(=O)(=O)c2ccc(C#C[C@@H](C)O)cc2O[C@H]1CN(C)C,inactive,inactive,inactive
CC(C)(C)C(=O)C[C@@H](Nc1ccccc1)c1ccc(Cl)cc1,inactive,inactive,inactive
O=C1NCCCc2occc21,inactive,inactive,inactive
Cc1ccccc1-n1cc[nH]c1=S,inactive,inactive,inactive
C[C@@H]1CCCCO[C@@H](CN(C)S(=O)(=O)c2cccs2)[C@H](C)CN([C@H](C)CO)C(=O)c2cc(NS(C)(=O)=O)ccc2O1,inactive,inactive,inactive
COc1ccc(NC(=O)Nc2ccc3c(c2)C(=O)N([C@H](C)CO)C[C@H](C)[C@@H](CN(C)CC2CCCCC2)OCCCC[C@H](C)O3)cc1,inactive,inactive,inactive
C[C@@H]1CN([C@@H](C)CO)C(=O)Cc2cc(NS(=O)(=O)c3ccccc3)ccc2O[C@H]1CN(C)Cc1ccc(Cl)c(Cl)c1,active,active,inactive
C[C@H]1CCCCO[C@H](CN(C)C(=O)Nc2ccc(F)cc2)[C@@H](C)CN([C@@H](C)CO)C(=O)c2cc(NC(=O)Nc3ccc(C(F)(F)F)cc3)ccc2O1,inactive,inactive,inactive
C[C@@H]1CCCCO[C@@H](CN(C)C(=O)Nc2ccc3c(c2)OCO3)[C@@H](C)CN([C@@H](C)CO)C(=O)c2cc(NC(=O)Nc3ccc(F)cc3)ccc2O1,inactive,inactive,inactive
C[C@@H]1CCCCO[C@@H](CN(C)C(=O)Nc2ccc(C(F)(F)F)cc2)[C@H](C)CN([C@@H](C)CO)C(=O)c2cc(NC(=O)Nc3ccccc3)ccc2O1,inactive,inactive,inactive
CCC(=O)N(C)C[C@@H]1Oc2ncc(C#C[C@@H](C)O)cc2C(=O)N([C@H](C)CO)C[C@@H]1C,inactive,inactive,inactive

SMILES,cytotoxicity call (HSkMC),cytotoxicity call (HepG2),growth inhibition call (S. aureus RN4220)
C[C@H]1CN([C@@H](C)CO)C(=O)c2cccc(NS(=O)(=O)c3ccc(F)cc3)c2O[C@H]1CN(C)S(=O)(=O)c1ccccc1,inactive,inactive,inactive
C[C@@H]1CCCCO[C@@H](CN(C)C(=O)c2ccccc2)[C@@H](C)CN([C@@H](C)CO)C(=O)c2cc(NS(=O)(=O)c3ccc(F)cc3)ccc2O1,inactive,inactive,inactive
Cc1ccc(S(=O)(=O)N(C)C[C@H]2Oc3c(NC(=O)Nc4ccc(C(F)(F)F)cc4)cccc3C(=O)N([C@H](C)CO)C[C@@H]2C)cc1,inactive,inactive,inactive
C[C@H]1CN([C@@H](C)CO)S(=O)(=O)c2ccc(-c3ccccc3F)cc2O[C@H]1CN(C)Cc1cncnc1,inactive,inactive,inactive
CO[C@H]1CN(C)C(=O)c2cc(NC(=O)Nc3ccccc3F)ccc2OC[C@H](C)N(CCC(F)(F)F)C[C@H]1C,inactive,inactive,inactive
CCS(=O)(=O)Nc1ccc2c(c1)C(=O)N(C)[C@@H]1CC[C@H](CC(=O)NCCOC)O[C@H]1CO2,inactive,inactive,inactive
IC(I)I,inactive,inactive,inactive
COc1ccc(S(=O)(=O)N(C)C[C@@H]2Oc3ncc(C#CC4(O)CCCC4)cc3C(=O)N([C@H](C)CO)C[C@@H]2C)cc1,inactive,inactive,inactive
CCC(=O)Nc1ccc2c(c1)OC[C@@H](C)N(C(=O)CN1CCOCC1)C[C@H](C)[C@H](OC)CN(C)C2=O,inactive,inactive,inactive
COC(CNC1=Nc2ncccc2OC1)OC,inactive,inactive,inactive
COc1cccc(S(=O)(=O)N(C)C[C@H]2Oc3ncc(C#CC(C)C)cc3C(=O)N([C@H](C)CO)C[C@@H]2C)c1,inactive,inactive,inactive
CC1=CC(=O)N(c2ccn(C)n2)C1=O,inactive,inactive,inactive
C[N+](C)(C)[C@@H]1[C@H]2OC[C@H](O)[C@H]2O[C@@H]1O,inactive,inactive,inactive
C[C@H](CO)N1C[C@H](C)[C@@H](CN(C)Cc2ccc(C(F)(F)F)cc2)Oc2ccc(NS(=O)(=O)c3ccc(Cl)cc3)cc2CC1=O,inactive,inactive,inactive
Cc1noc(C)c1S(=O)(=O)N(C)C[C@@H]1Oc2ccc(NS(=O)(=O)c3cn(C)cn3)cc2C(=O)N([C@@H](C)CO)C[C@@H]1C,inactive,inactive,inactive
C[C@@H]1CN([C@H](C)CO)C(=O)c2cc(NC(=O)Nc3ccc(F)cc3)ccc2O[C@@H](C)CCCCO[C@@H]1CN(C)C(=O)NC1CCCCC1,inactive,inactive,inactive
C[C@@H]1CN([C@@H](C)CO)C(=O)c2cc(C#Cc3cccnc3)cnc2O[C@H]1CN(C)S(=O)(=O)c1ccccc1F,inactive,inactive,inactive
Nc1cc(Cl)ncn1,inactive,inactive,inactive
C[C@H](CO)N1C[C@H](C)[C@H](CN(C)S(C)(=O)=O)Oc2c(NC(=O)Nc3ccc(F)cc3)cccc2C1=O,inactive,inactive,inactive
